Measurements as given in a collection of fitness landscapes (doi:10.1016/j.celrep.2020.107928).
Over roughly 81,000 sequences, “one-hybrid fitness for binding NBS DNA” has its median near -0.1; the highest 2% begin near 0.36. The list shows a part of the results.

B1: Caulobacter ParB omega fusion; a variant is named by its letters at X, in order, B8GW30 (parent)
chain: MESVVVGEPGMSEGRRGLGRGLSALLGEVDAAPAQAPGEQLGGSREAPIEILQRNPDQPRRTFREEDLEDLSNSIREKGVLQPILVRPSPDTAGEYQIVAGERAWRAAQRAGLKTVPIMVRELDDLAVLEIGIIENVQRADLNVLEEALSYKVLMEKFERTQENIAQTIGKSXSHVANXMRLLXLPDEVQSYLVSGELTAXHARAIAAAADPVALAKQIIEGGLSVRETEALARKAPNLSAGKSKGGRPPRVKDTDTQALESDLSSVLGLDVSIDHRGSTGTLTITYATLEQLDDLCNRLTRGI

Variants of: B1
Test: one-hybrid fitness for binding NBS DNA (the Noc-binding site; scaled: cognate 1, non-cognate 0); higher = stronger binding
Conditions: with NBS DNA site
Outline: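 Caulobacter ParB libraries with four specificity codons randomised were screened by bacterial one-hybrid selection in the E. coli USO strain, using a HIS3 reporter whose site lies 19 bp from the promoter. Selection ran for 48 hours at 37°C on M9 lacking histidine, with 0.1 mM IPTG and 5 mM 3-AT. Plasmids were Illumina-sequenced before and after selection, three replicate libraries were pooled, and variants with under 10 reads were dropped. Fitness is the log change in each variant's read ratio to wild type, rescaled against the cognate and non-cognate sites.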

Row | Variant | one-hybrid fitness for binding NBS DNA
1 | PLTC | ≤ 0.2
2 | PIYC | ≤ 0.2
3 | LTYR | ≤ 0.2
4 | RAYC | ≤ 0.2
5 | SATT | ≤ 0.2
6 | ARME | ≤ 0.2
7 | VQWS | ≤ 0.2
8 | GPTS | ≤ 0.2
9 | ELQG | ≤ 0.2
10 | WLKQ | ≤ 0.2
11 | DFNS | ≤ 0.2
12 | EVRI | ≤ 0.2
13 | TDAD | ≤ 0.2
14 | LRQT | ≤ 0.2
15 | SRFH | ≤ 0.2
16 | VCNL | ≤ 0.2
17 | CYCL | ≤ 0.2
18 | RKTR | 0.602
19 | MKCL | ≤ 0.2
20 | SMSA | ≤ 0.2
21 | WKFG | ≤ 0.2
22 | NCPT | ≤ 0.2
23 | QGDS | ≤ 0.2
24 | IATR | ≤ 0.2
25 | IRAR | 0.294
26 | SLHD | ≤ 0.2

Row | Variant | one-hybrid fitness for binding NBS DNA
27 | TEWL | ≤ 0.2
28 | ATKV | ≤ 0.2
29 | VLLE | ≤ 0.2
30 | WRSG | ≤ 0.2
31 | PMNY | ≤ 0.2
32 | NRPC | ≤ 0.2
33 | SAVE | ≤ 0.2
34 | HRPM | ≤ 0.2
35 | LNQD | ≤ 0.2
36 | RWNW | ≤ 0.2
37 | REIE | ≤ 0.2
38 | KGAS | ≤ 0.2
39 | PTVD | ≤ 0.2
40 | EEMR | ≤ 0.2
41 | IRGL | ≤ 0.2
42 | ATPQ | ≤ 0.2
43 | HTPW | ≤ 0.2
44 | QHNN | ≤ 0.2
45 | TPWC | ≤ 0.2
46 | HKIY | ≤ 0.2
47 | HKIR | ≤ 0.2
48 | QELW | ≤ 0.2
49 | DYAT | ≤ 0.2
50 | KRER | 0.368
51 | WTFV | ≤ 0.2
52 | TYPM | ≤ 0.2

Row | Variant | one-hybrid fitness for binding NBS DNA
53 | RPIA | ≤ 0.2
54 | NMHS | ≤ 0.2
55 | QHYQ | ≤ 0.2
56 | PRDI | ≤ 0.2
57 | QNKG | ≤ 0.2
58 | PCKY | ≤ 0.2
59 | QLIG | ≤ 0.2
60 | MYCS | ≤ 0.2
61 | SECT | ≤ 0.2
62 | FPMV | ≤ 0.2
63 | FATV | ≤ 0.2
64 | IFEL | ≤ 0.2
65 | YYTG | ≤ 0.2
66 | YHST | ≤ 0.2
67 | PSKH | ≤ 0.2
68 | SGRT | ≤ 0.2
69 | VIWL | ≤ 0.2
70 | RQEW | ≤ 0.2
71 | TPAW | ≤ 0.2
72 | PVTM | ≤ 0.2
73 | HVKL | ≤ 0.2
74 | RRCD | ≤ 0.2
75 | KYVC | ≤ 0.2
76 | VVTM | ≤ 0.2
77 | TDIW | ≤ 0.2
78 | LYES | ≤ 0.2

Row | Variant | one-hybrid fitness for binding NBS DNA
79 | NARC | ≤ 0.2
80 | KFHS | ≤ 0.2
81 | YMVV | ≤ 0.2
82 | VFSR | ≤ 0.2
83 | ARNM | ≤ 0.2
84 | FFWR | ≤ 0.2
85 | PSTM | ≤ 0.2
86 | NFNR | ≤ 0.2
87 | EQHT | ≤ 0.2
88 | YVSG | ≤ 0.2
89 | IFTM | ≤ 0.2
90 | RKIF | ≤ 0.2
91 | HGMS | ≤ 0.2
92 | RTCE | ≤ 0.2
93 | FLNM | ≤ 0.2
94 | LHNT | ≤ 0.2
95 | DSRD | ≤ 0.2
96 | GANM | ≤ 0.2
97 | TAAM | ≤ 0.2
98 | TIMK | ≤ 0.2
99 | GRVL | ≤ 0.2
100 | HCGG | ≤ 0.2
101 | INMR | ≤ 0.2
102 | RLPK | ≤ 0.2
103 | FEDS | ≤ 0.2
104 | LMPS | ≤ 0.2

Row | Variant | one-hybrid fitness for binding NBS DNA
105 | SENT | ≤ 0.2
106 | SSPQ | ≤ 0.2
107 | QCIS | 0.364
108 | AMDA | ≤ 0.2
109 | KIYA | ≤ 0.2
110 | PKSH | ≤ 0.2
111 | HQYC | ≤ 0.2
112 | ESLT | ≤ 0.2
113 | YGAC | ≤ 0.2
114 | SVIA | ≤ 0.2
115 | DRMG | ≤ 0.2
116 | KNGT | ≤ 0.2
117 | PTMM | ≤ 0.2
118 | VTFK | ≤ 0.2
119 | DKWG | ≤ 0.2
120 | QRVH | 0.387
121 | WHFT | ≤ 0.2
122 | SQVC | ≤ 0.2
123 | LCEC | ≤ 0.2
124 | CILA | ≤ 0.2
125 | RAKA | 0.363
126 | WRTN | ≤ 0.2
127 | PNYV | ≤ 0.2
128 | SDTF | ≤ 0.2
129 | PPLL | ≤ 0.2
130 | DTRT | ≤ 0.2

Row | Variant | one-hybrid fitness for binding NBS DNA
131 | FCNT | ≤ 0.2
132 | CWSA | ≤ 0.2
133 | RYEK | ≤ 0.2
134 | PERW | ≤ 0.2
135 | HRPG | ≤ 0.2
136 | RYSY | ≤ 0.2
137 | KYNT | ≤ 0.2
138 | MTPK | ≤ 0.2
139 | SDSH | ≤ 0.2
140 | PDHG | ≤ 0.2
141 | EYCR | ≤ 0.2
142 | RFYK | ≤ 0.2
143 | PFLA | ≤ 0.2
144 | GAIL | ≤ 0.2
145 | TLNC | ≤ 0.2
146 | HTHM | ≤ 0.2
147 | ITHL | ≤ 0.2
148 | RTVM | ≤ 0.2
149 | NWST | ≤ 0.2
150 | GTVS | ≤ 0.2
151 | APYI | ≤ 0.2
152 | VMNV | ≤ 0.2
153 | KPPY | ≤ 0.2
